T1: human GPR20 (Homo sapiens, UniProt Q99678)
T1 construct: expressed in transfected cells; host or cells: 293T cells, transient, Lipofectamine 2000
T1 sequence (Q99678 1-358): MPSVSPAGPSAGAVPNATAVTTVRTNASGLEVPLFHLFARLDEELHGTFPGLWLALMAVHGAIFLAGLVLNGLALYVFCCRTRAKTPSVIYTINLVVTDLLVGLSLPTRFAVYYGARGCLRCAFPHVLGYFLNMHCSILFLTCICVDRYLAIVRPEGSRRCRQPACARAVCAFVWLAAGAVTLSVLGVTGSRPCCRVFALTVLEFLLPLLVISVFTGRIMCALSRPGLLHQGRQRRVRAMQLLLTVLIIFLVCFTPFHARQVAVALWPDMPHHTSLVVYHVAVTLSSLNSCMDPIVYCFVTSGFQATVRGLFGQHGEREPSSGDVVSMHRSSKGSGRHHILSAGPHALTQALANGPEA

B1: antibody-drug conjugate (2): antibody-drug conjugate produced from 04-046Ch; average number of conjugated drug molecules 5.6 (conjugate)
heavy: QVQLQQSGAELAKPGSSVKISCKASGYTFTSYYISWIKQTTGQGLKYIGFINPGSGHTNYNEKFKGKATLTVDKSSSTAFMQLSSLTPDDSAIYYCARGAGGFLRIITKFDYWGQGVMVTVSSASTKGPSVFPLAPSSKSTSGGTAALGCLVKDYFPEPVTVSWNSGALTSGVHTFPAVLQSSGLYSLSSVVTVPSSSLGTQTYICNVNHKPSNTKVDKRV[letters of human IgG1 Fc omitted]
light: DTVLTQSPALAVSLGQRVTISCRASKSVSTYIHWYQQRSGQQPKLLIYSASNLESGVPSRFSGSGSGTDFTLTIDPVEPDDIANYYCQQINELPYTFGAGTKLELKRAVAAPSVFIFPPSDEQLKSGTASVVCLLNNFYPREAKVQWKVDNALQSGNSQESVTEQDSKDSTYSLSSTLTLSKADYEKHKVYACEVTHQGLSSPVTKSFNRGEC
B2: h046-H4b/L7: humanized h046-H4b type heavy chain and humanized h046-L7 type light chain (antibody)
heavy: QVQLVQSGAEVKKPGASVKVSCKASGYTFTSYYISWIRQAPGQGLKYMGFINPGSGHTNYNEKFKGRVTITADKSSSTATMELSSLRSEDTAVYYCARGAGGFLRIITKFDYWGQGTLVTVSSASTKGPSVFPLAPSSKSTSGGTAALGCLVKDYFPEPVTVSWNSGALTSGVHTFPAVLQSSGLYSLSSVVTVPSSSLGTQTYICNVNHKPSNTKVDKRV[letters of human IgG1 Fc omitted]
light: DTQLTQSPSSLSASVGDRVTITCRASKSVSTYIHWYQQKPGKQPKLLIYSAGNLESGVPSRFSGSGSGTDFTLTISSLQPEDFANYYCQQINELPYTFGQGTKVEIKRTVAAPSVFIFPPSDEQLKSGTASVVCLLNNFYPREAKVQWKVDNALQSGNSQESVTEQDSKDSTYSLSSTLTLSKADYEKHKVYACEVTHQGLSSPVTKSFNRGEC
B3: antibody-drug conjugate (9): antibody-drug conjugate produced from h046-Hwt/L6; n 7.4 by common procedure F (conjugate)
heavy: QVQLQQSGAELAKPGSSVKISCKASGYTFTSYYISWIKQTTGQGLKYIGFINPGSGHTNYNEKFKGKATLTVDKSSSTAFMQLSSLTPDDSAIYYCARGAGGFLRIITKFDYWGQGVMVTVSSASTKGPSVFPLAPSSKSTSGGTAALGCLVKDYFPEPVTVSWNSGALTSGVHTFPAVLQSSGLYSLSSVVTVPSSSLGTQTYICNVNHKPSNTKVDKRV[letters of human IgG1 Fc omitted]
light: DTQLTQSPSSLSASVGDRVTITCRASKSVSTYIHWYQQKPGKQPKLLIYSASDRESGVPSRFSGSGSGTDFTLTISSLQPEDFANYYCQQINELPYTFGQGTKVEIKRTVAAPSVFIFPPSDEQLKSGTASVVCLLNNFYPREAKVQWKVDNALQSGNSQESVTEQDSKDSTYSLSSTLTLSKADYEKHKVYACEVTHQGLSSPVTKSFNRGEC
B4: h046-H4e/L7: humanized h046-H4e type heavy chain and humanized h046-L7 type light chain (antibody)
heavy: EVQLVQSGAEVKKPGASVKVSCKASGYTFTSYYISWIRQAPGQGLKYMGFINPGSGHTNYNEKFKGRVTITADKSSSTATMELSSLRSEDTAVYYCARGAGGFLRIITKFDYWGQGTLVTVSSASTKGPSVFPLAPSSKSTSGGTAALGCLVKDYFPEPVTVSWNSGALTSGVHTFPAVLQSSGLYSLSSVVTVPSSSLGTQTYICNVNHKPSNTKVDKRV[letters of human IgG1 Fc omitted]
light: DTQLTQSPSSLSASVGDRVTITCRASKSVSTYIHWYQQKPGKQPKLLIYSAGNLESGVPSRFSGSGSGTDFTLTISSLQPEDFANYYCQQINELPYTFGQGTKVEIKRTVAAPSVFIFPPSDEQLKSGTASVVCLLNNFYPREAKVQWKVDNALQSGNSQESVTEQDSKDSTYSLSSTLTLSKADYEKHKVYACEVTHQGLSSPVTKSFNRGEC
B5: antibody-drug conjugate (8): antibody-drug conjugate produced from h046-H5b/L2; n 7.7 by common procedure F (conjugate)
heavy: QVQLVQSGAEVKKPGASVKVSCKASGYTFTSYYISWIRQAPGQGLKYMGFINPGSGHTNYNEKFKGRVTITADKSSSTANMELSSLRSEDTAVYYCARGAGGFLRIITKFDYWGQGTLVTVSSASTKGPSVFPLAPSSKSTSGGTAALGCLVKDYFPEPVTVSWNSGALTSGVHTFPAVLQSSGLYSLSSVVTVPSSSLGTQTYICNVNHKPSNTKVDKRV[letters of human IgG1 Fc omitted]
light: DIQMTQSPSSLSASVGDRVTITCRASKSVSTYIHWYQQKPGKQPKLLIYSASNLESGVPSRFSGSGSGTDFTLTISSLQPEDFATYYCQQINELPYTFGQGTKVEIKRTVAAPSVFIFPPSDEQLKSGTASVVCLLNNFYPREAKVQWKVDNALQSGNSQESVTEQDSKDSTYSLSSTLTLSKADYEKHKVYACEVTHQGLSSPVTKSFNRGEC
B6: antibody-drug conjugate (7): antibody-drug conjugate produced from h046-H4b/L7; n 7.6 by common procedure F (conjugate)
heavy: QVQLVQSGAEVKKPGASVKVSCKASGYTFTSYYISWIRQAPGQGLKYMGFINPGSGHTNYNEKFKGRVTITADKSSSTATMELSSLRSEDTAVYYCARGAGGFLRIITKFDYWGQGTLVTVSSASTKGPSVFPLAPSSKSTSGGTAALGCLVKDYFPEPVTVSWNSGALTSGVHTFPAVLQSSGLYSLSSVVTVPSSSLGTQTYICNVNHKPSNTKVDKRV[letters of human IgG1 Fc omitted]
light: DTQLTQSPSSLSASVGDRVTITCRASKSVSTYIHWYQQKPGKQPKLLIYSAGNLESGVPSRFSGSGSGTDFTLTISSLQPEDFANYYCQQINELPYTFGQGTKVEIKRTVAAPSVFIFPPSDEQLKSGTASVVCLLNNFYPREAKVQWKVDNALQSGNSQESVTEQDSKDSTYSLSSTLTLSKADYEKHKVYACEVTHQGLSSPVTKSFNRGEC

Tests used:
[1] = system: GIST-T1/GPR20 cells; experiment: Antitumor effect in subcutaneously GIST-T1/GPR20 cell-transplanted nude mouse models; format: in vivo, BALB/c nude mice
[2] = system: human gastrointestinal stromal tumor cell line GIST430; experiment: Antitumor effect in subcutaneously GIST430 cell-transplanted nude mouse models; format: in vivo, BALB/c nude mice; settings: 10 mg/kg intravenously on Days 29, 36 and 43; compared with control group; FIG. 29
[3] = target: T1, human GPR20; experiment: Binding activity of humanized anti-GPR20 antibodies and antibody-drug conjugates by flow cytometry; settings: 293T cells transfected with pcDNA3.1-hGPR20; FIG. 25
[4] = target: T1, human GPR20; experiment: Internalization activity of humanized anti-GPR20 antibodies with Hum-ZAP in HEK293 cells stably expressing GPR20-EGFP; format: cell-based; settings: antibody 0.015 to 1.27 μg/mL, Hum-ZAP 1 μg/mL, 4 days
[5] = system: GIST-T1/GPR20 cells; experiment: In vitro cell proliferation-suppressive activity of ADC (CellTiter-Glo); format: cell-based, human; settings: 0.032 to 100 nM, culture for 7 to 11 days; FIG. 26, FIG. 27

Molecule | amount of the antibody bound based on MFI [3] | cell proliferation-suppressive activity (number of live cells, ATP) [5] | other results
B1 |  |  | tumor volume ([1]; 10 mg/kg intravenously on Day 14, FIG. 28): remarkably decreased tumor volume; tumor volume [2]: remarkably decreased tumor volume
B2 | increased in a concentration-dependent manner |  | cell proliferation-suppressive effect by antibody internalization [4]: exhibited a cell proliferation-suppressive effect by antibody internalization
B3 |  | concentration-dependent cell proliferation-suppressive activity | tumor volume ([1]; 10 mg/kg intravenously on Day 24, FIG. 30): remarkably decreased tumor volume
B4 | increased in a concentration-dependent manner |  | 
B5 |  | concentration-dependent cell proliferation-suppressive activity | 
B6 |  | concentration-dependent cell proliferation-suppressive activity | 
